Reference: publication PMC6919601, “Identification of Plasmodium dipeptidyl aminopeptidase allosteric inhibitors by high throughput screening” (PLoS ONE, 2019)
About 230 (0.21%) of roughly 110,000 compounds showed an effect of 50% or more. The list shows a part of the results.

What follows are compounds tested against DPAP1 (Plasmodium falciparum, UniProt Q8IIJ9) (assay: primary screen, percent inhibition; read by cleavage of a fluorogenic dipeptide substrate; higher = more effect of the substance).
DPAP1, sequence (Q8IIJ9 whole entry, looked up): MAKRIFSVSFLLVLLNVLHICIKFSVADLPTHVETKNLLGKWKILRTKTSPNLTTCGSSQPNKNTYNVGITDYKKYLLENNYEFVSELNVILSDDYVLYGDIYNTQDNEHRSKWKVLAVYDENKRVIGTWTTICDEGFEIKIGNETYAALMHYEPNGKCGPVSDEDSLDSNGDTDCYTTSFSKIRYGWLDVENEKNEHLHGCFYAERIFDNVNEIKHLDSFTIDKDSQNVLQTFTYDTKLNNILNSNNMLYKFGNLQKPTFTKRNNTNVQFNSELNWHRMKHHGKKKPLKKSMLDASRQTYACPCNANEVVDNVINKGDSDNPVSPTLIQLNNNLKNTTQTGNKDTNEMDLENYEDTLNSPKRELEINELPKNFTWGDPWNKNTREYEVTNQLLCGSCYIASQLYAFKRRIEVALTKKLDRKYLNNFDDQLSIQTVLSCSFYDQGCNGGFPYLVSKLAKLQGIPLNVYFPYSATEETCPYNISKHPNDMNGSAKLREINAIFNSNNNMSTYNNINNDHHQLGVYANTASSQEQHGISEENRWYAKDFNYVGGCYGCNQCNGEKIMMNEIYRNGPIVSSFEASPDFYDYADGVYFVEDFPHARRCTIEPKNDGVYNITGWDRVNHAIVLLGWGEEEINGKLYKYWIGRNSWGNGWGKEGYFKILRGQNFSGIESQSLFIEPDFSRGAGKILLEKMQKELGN
Parameters: species or system P. falciparum D10 trophozoite lysates; single well
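Note: 30 min substrate incubation versus DMSO and 10 µM JCP410 controls.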

| SMILES | % Inhibition @ 10 uM [%] |
| --- | --- |
| CC(=O)[C@@]1(O)C(C)CC2C3CCC4CC(O)CCC4(C)C3CCC21C (some centres unmarked) | 1.88 |
| CCOC(=O)c1c(C)[nH]c(C)c1S(=O)(=O)N(C)CC(=O)N1CCC(Cc2ccccc2)CC1 | 2.74 |
| CCOC(=O)C1=C(C)NC(=O)NC1c1cn(-c2ccccc2)nc1-c1ccc(OC)c(Cl)c1 (centres unmarked) | 4.74 |
| CCOC(=O)N1CCN(C2=C(NC(C)=O)C(=O)c3ccccc3C2=O)CC1 | -3.04 |
| CC(C)c1ccc(C2c3c(-c4ccccc4O)n[nH]c3C(=O)N2CC2CCCO2)cc1 (centres unmarked) | 0.366 |
| COc1ccc(N2CCN(C(=O)CCN3C(=O)c4cccc5cccc(c45)C3=O)CC2)cc1 | 31.6 |
| O=C1NC(=S)N(C(=O)c2ccc(F)cc2)/C1=C/c1ccccc1 | 0.98 |
| O=C(Cn1nc(Cc2cccnc2)c2ccccc2c1=O)N1CCN(c2ccccn2)CC1 | -6.52 |
| COC(=O)C1=C(C)N(C)C(=O)/C1=C\c1ccc(Cl)c(Cl)c1 | -1.6 |
| Cn1nc(C(=O)NC2CCCc3ccccc32)c2c1-c1ccccc1S(=O)(=O)C2 (centres unmarked) | 6.84 |
| C=CCNC(=O)CN(c1ccc(C)cc1)S(=O)(=O)c1ccc(OC)c(Br)c1 | -4.91 |
| Clc1ccc(-n2nnnc2-c2ccccc2)cc1Cl | -3.14 |
| COC(=O)C1=C(C)N(CC(C)C)C(=O)/C1=C\c1cc(C)n(-c2ccccc2C)c1C | -5.51 |
| Cc1cccc(N2C(=O)C3CC=CC(C)C3C2=O)c1 (centres unmarked) | 6.1 |
| O=C1CC(N2CCN(Cc3ccccc3)CC2)C(=O)N1c1cccc(Br)c1 (centres unmarked) | 1.76 |
| O=C(NCCc1ccccc1)c1cc(-c2ccc(F)cc2)on1 | -3.36 |
| COc1ccc(CN2CCN(S(=O)(=O)c3ccccc3)CC2)cc1OC | 2.98 |
| c1ccc(NCC2COc3ccccc3O2)nc1 (centres unmarked) | 1.43 |
| CC(=O)Nc1sc(C)c(C)c1C#N | 1.41 |
| Cc1ccc(-c2nnc(N3CCCCC3)c3ccccc23)cc1S(=O)(=O)NCC1CCCO1 (centres unmarked) | 4.18 |
| C=CCOC(=O)C1=C(C)N(CC)C(=O)NC1c1cc(Br)c(O)c(OC)c1 (centres unmarked) | 8.79 |

| SMILES | % Inhibition @ 10 uM [%] |
| --- | --- |
| CC(C)C[C@H](NC(=O)Nc1nc(-c2ccccc2)cs1)C(=O)NCC#N | -0.778 |
| O=C(O)C1Cc2c([nH]c3ccccc23)C(c2ccc(Br)cc2)N1 (centres unmarked) | 4.41 |
| CSc1nn(-c2cc(Oc3ccccc3)nc(C)n2)c(N)c1C#N | -11 |
| Cc1nn(C)cc1C(=O)Nc1ccc2c(c1)CCC2 | -7.3 |
| COc1ccc(C(=O)NCc2ccc(C)cc2)cc1OC | 4.22 |
| O=C(c1cc2c(s1)-c1ccc(Cl)cc1S(=O)(=O)C2)N1CCC2(CC1)OCCO2 | -4.24 |
| Cc1ccc(S(=O)(=O)n2nc(-c3ccco3)nc2N)cc1 | -1.92 |
| CSc1ncc(C(=O)NCCc2c[nH]c3ccccc23)c(C)n1 | 1.11 |
| CC(Cc1ccccc1)Nc1nc2c(S(=O)(=O)c3ccccc3)nnn2c2ccsc12 (centres unmarked) | 0.581 |
| Cc1ccc(-n2c(/C=C/N(C)C)c([N+](=O)[O-])c3ccc(O)c(CN(C)C)c32)cc1 | -1.42 |
| CC1=C(C(=O)Nc2cccc(C)c2C)C(c2ccccc2Cl)NC(=O)N1 (centres unmarked) | -10.2 |
| Cc1c(C(=O)N2CCCC2)oc2c1-c1nn(CC(=O)N3CCC4(CC3)OCCO4)cc1CC2 | 3.08 |
| COC(=S)NC(=O)Cc1ccccc1Cl | 5.03 |
| C=CCNC(=O)CN(c1cc(OC)ccc1OC)S(C)(=O)=O | -3.48 |
| N#C/C(=C\c1ccccc1Cl)c1nc(-c2ccc(Cl)c(Cl)c2)cs1 | -0.736 |
| O=C1N=C(N2CCOCC2)S/C1=C\c1ccco1 | -5.28 |
| CCOc1ccc(CCNC(=O)c2cc3c(s2)-c2ccccc2OC3)cc1 | -3.08 |
| COc1ccc(CCNC(=O)CCc2c(C)nc3nc(C)nn3c2C)c(OC)c1 | 2.93 |
| NC(=O)C1CCN(c2nc3c(S(=O)(=O)c4cccc(Cl)c4)nnn3c3ccsc23)CC1 | -8.1 |
| CNCC12CC3CC(C1)CC(c1ccc(C)cc1)(C3)C2 | -0.68 |
| COc1cccc(CSc2nncn3c2cc2occc23)c1 | 0.616 |

| SMILES | % Inhibition @ 10 uM [%] |
| --- | --- |
| O=C(CCCCC(=O)N1CCc2ccccc21)N1CCc2ccccc21 | -4.01 |
| CCN(CC)c1ccc(NC(=O)C(C)(C)C)cc1 | -3.63 |
| Cc1cc(OCC(=O)Nc2ccc(S(=O)(=O)N3CCC(C)CC3)cc2)ccc1Br | -3.43 |
| C[C@@H](C[C@H](NC(=O)c1ccc(-c2cc(C(=O)O)ccc2Cl)cc1)C(=O)NC1(C#N)CCOCC1)c1ccccc1 | -1.5 |
| C=C(C)CN(CC)Cc1cc(Cl)ccc1[N+](=O)[O-] | -0.0494 |
| CC1CN(S(=O)(=O)c2ccc(-c3ccc(Cl)cc3)cc2)CC(C)O1 (centres unmarked) | 3.9 |
| Nc1nnc(-c2ccc([N+](=O)[O-])cc2)s1 | -0.0369 |
| Clc1cccc(CN2CCOCC2)c1Cl | 1.62 |
| Cc1cccc2cc(-c3ccccn3)nc(N)c12 | 0.245 |
| COc1ccc(C2C(C(=O)c3ccc(C)cc3)=C(O)C(=O)N2c2ccccc2)cc1OC (centres unmarked) | -12.2 |
| COc1ccc(CNC(=O)C2Sc3nnc(C)n3NC2c2ccc(Cl)cc2)cc1 (centres unmarked) | 0.0289 |
| Cc1cccc(CSCCNS(=O)(=O)c2ccc3c(c2)OCCO3)c1 | -5.01 |
| CCOC(=O)c1c(NC(=S)NC(=O)c2cccnc2)sc2c1CCCC2 | 2.41 |
| Cc1cc(=O)oc2c(C)c3occ(C(C)(C)C)c3cc12 | 2.21 |
| Cc1nnc(NC(=O)c2cccn(OCc3ccccc3)c2=O)s1 | -1.66 |
| COC(=O)C12CCC3(SCCS3)C(C(=O)OC)(CCC13SCCS3)C2 | 0.00784 |
| CN(C(=O)c1cc(S(=O)(=O)N2CCCCC2)c[nH]1)C1CCCCC1 | 7.63 |
| CC(C)N(CC#CC(O)(c1ccccc1)c1ccccc1)C(C)C | -2.15 |
| O=C(/C=C/c1ccccc1)n1nnc2ccccc21 | 4.41 |
| Cc1nn(CC(=O)Nc2ccc(Br)cn2)c(=O)c2cccn12 | 0.0811 |
